Out of some 310,000 compounds screened, about 14,000 (4.5%) showed an effect of 50% or more. The effect is printed as a negative number. Some of the results follow.
Each compound was assayed against human ether-à-go-go-related gene (hERG) potassium channel (human, UniProt Q12809) (assay: primary screen, population patch clamp on CHO cells stably expressing hERG).
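Further: peak tail current of the secondary pulse compared with the same well before compound.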

Sequence of human ether-à-go-go-related gene (hERG) potassium channel (Q12809 whole entry, looked up): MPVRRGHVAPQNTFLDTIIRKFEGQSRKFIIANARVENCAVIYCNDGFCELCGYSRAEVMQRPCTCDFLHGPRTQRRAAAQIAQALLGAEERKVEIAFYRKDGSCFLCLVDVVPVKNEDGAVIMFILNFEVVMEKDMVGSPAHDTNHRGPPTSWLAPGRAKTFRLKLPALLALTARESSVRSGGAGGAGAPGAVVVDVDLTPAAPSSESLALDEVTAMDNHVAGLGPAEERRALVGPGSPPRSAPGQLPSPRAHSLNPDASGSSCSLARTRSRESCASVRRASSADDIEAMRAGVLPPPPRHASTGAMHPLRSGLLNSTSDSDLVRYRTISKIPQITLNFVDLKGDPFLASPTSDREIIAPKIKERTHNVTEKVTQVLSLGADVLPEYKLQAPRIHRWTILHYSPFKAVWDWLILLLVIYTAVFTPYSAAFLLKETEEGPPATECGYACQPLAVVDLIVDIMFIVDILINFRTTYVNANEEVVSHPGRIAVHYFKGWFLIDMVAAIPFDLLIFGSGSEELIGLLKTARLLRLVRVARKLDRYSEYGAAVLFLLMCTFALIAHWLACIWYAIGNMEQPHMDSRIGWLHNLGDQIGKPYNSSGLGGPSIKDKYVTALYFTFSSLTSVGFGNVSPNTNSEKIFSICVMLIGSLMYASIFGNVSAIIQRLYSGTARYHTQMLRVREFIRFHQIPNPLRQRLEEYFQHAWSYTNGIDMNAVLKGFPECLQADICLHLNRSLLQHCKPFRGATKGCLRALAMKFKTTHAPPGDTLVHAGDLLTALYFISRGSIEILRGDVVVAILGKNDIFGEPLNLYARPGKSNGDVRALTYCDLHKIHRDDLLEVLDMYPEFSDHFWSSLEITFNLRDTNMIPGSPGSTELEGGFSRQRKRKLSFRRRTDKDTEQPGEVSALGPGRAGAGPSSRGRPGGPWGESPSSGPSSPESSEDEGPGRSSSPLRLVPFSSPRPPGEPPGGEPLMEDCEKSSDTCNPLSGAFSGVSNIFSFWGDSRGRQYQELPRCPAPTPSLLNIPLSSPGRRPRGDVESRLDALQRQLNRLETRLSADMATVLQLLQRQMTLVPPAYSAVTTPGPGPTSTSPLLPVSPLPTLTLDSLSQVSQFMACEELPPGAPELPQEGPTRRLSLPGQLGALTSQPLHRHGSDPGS

SMILES | hERG current change (%, negative = inhibition) at 10uM
c1csc(C2C3=C(Nc4ncnn42)c2ccccc2OC3)c1 (stereo not shown) | 11.4%
Cc1cc2nc(-c3ccc(NC(=O)c4cccnc4)cc3)oc2cc1C | 12%
CCC1CCCCN1CCCNC(=O)c1cn(CC)c2ccc(S(=O)(=O)N(C)C3CCCCC3)cc2c1=O (stereo not shown) | -79.8%
CCNc1nc(NC(C)C)nc(N2CC(=O)N(CC(=O)OCC)C2=N)n1 | -13.9%
CCOc1cc(/C=C(/C#N)c2nc3ccccc3[nH]2)ccc1Oc1ccc([N+](=O)[O-])cn1 | 8.7%
Cc1cccc(NC(=O)Nc2ccc(F)cc2)n1 | 19%
COCCn1cnc2c(c1=O)c1nc3ccccc3nc1n2/N=C/c1cccc(OC)c1 | -16.8%
CC1=NN(c2ccc(C(=O)OC(C)C)cc2)C(=O)/C1=C\C=C\c1ccco1 | 5.53%
Cn1nnnc1SCC(=O)Nc1cc(C(=O)O)cc(C(=O)O)c1 | -5.93%
CCc1cccc(NC(=O)CN(C)S(=O)(=O)c2cnc[nH]2)c1 | 19.5%
CCCCCCOC(=O)C(C#N)c1nc2ccccc2nc1N1CCOCC1 (stereo not shown) | 1.23%
CCOC(=O)N1CCC(N(CCOC)C(=O)Nc2ccc(Cl)c(Cl)c2)CC1 | -33.4%
COc1ccc(OCC(O)Cn2c(Br)nc3c2c(=O)[nH]c(=O)n3C)cc1 (stereo not shown) | -12.6%
COc1ccc(CCNC(=O)c2cc(S(=O)(=O)N(C)c3ccccc3)ccc2Cl)cc1 | -16.6%
Cc1cc2c(n1-c1ccc(C(=O)O)cc1)CCCCC2 | 7.7%
Cc1cc2cc(CCNS(C)(=O)=O)c(=O)[nH]c2cc1C | 12.6%
COc1ccc(NC(=O)CSc2nc3sc(C)cc3c(=O)n2C)c(OC)c1 | -24.9%
CCOC(=O)c1nn(-c2c(C)n(C)n(-c3ccccc3)c2=O)cc1O | 16.6%
CCOC(=O)N1CCN(S(=O)(=O)c2ccc(NC(C)=O)cc2)CC1 | 18.8%
CCOc1cc2c(cc1OCC)CN(CC(=O)Nc1ccccc1C(=O)NC1CC1)CC2 | -31.4%
O=C(Nc1nnc(C2CC2)o1)c1ccc(S(=O)(=O)N2CCCc3ccccc32)cc1 | -19.3%
CCOC(=O)c1c(NC(=O)C2CCCO2)sc(C(=O)OC(C)(C)C)c1C (stereo not shown) | 9.29%

SMILES | hERG current change (%, negative = inhibition) at 10uM
Cc1ccc2c(c1)CCCN2C(=O)c1cc2ccccc2oc1=O | -3.07%
O=Cc1ccc(OCC(=O)N2CCOCC2)cc1 | 11.4%
COc1cc(/C(C)=N/NC(=O)c2nnn(-c3nonc3N)c2-c2cccs2)ccc1O | 16.4%
CCOc1ccccc1OCCCC(=O)ON=C(N)c1ccccc1 | 6.75%
Cn1c(SCC(=O)O)nnc1C1CCCCC1 | 3.75%
COC(=O)CSc1nnc(Cc2cc(=O)[nH]c(=O)[nH]2)n1-c1cccc(OC)c1 | -4.88%
Cn1c(CCNC(=O)c2ccco2)nc2cc(NS(=O)(=O)c3ccc(Cl)cc3)ccc21 | -65.2%
CC1(C)CC(=O)c2cnc3c(C#N)cnn3c2C1 | -0.692%
C=CCNC(=O)NC(=O)COC(=O)/C(C#N)=C/c1cc(C)n(CCC(C)C)c1C | 12.8%
Cc1cc(C)c(NC(=O)c2cccs2)c(C)c1NC(=O)c1cccs1 | 20.6%
COc1cc(-c2nc(-c3ccc4c(c3)-c3ccccc3S4(=O)=O)c(-c3ccccc3)[nH]2)cc(OC)c1OC | 9.93%
CC(=O)Nc1ccccc1-c1nc2ccccc2nc1OCC(=O)c1ccc2ccccc2c1 | 15.8%
Cc1[nH]c(=O)[nH]c(=O)c1S(=O)(=O)N1CCCC(C(=O)NCCC2=CCCCC2)C1 (stereo not shown) | 8.4%
Nc1nc2ccc(S(=O)(=O)N3CCCCC3)cc2s1 | 11.5%
CCCS(=O)(=O)N1CCC(C(=O)c2cccc(C(F)(F)F)c2)CC1 | -37.6%
COc1ccc(C(C(=O)NC2CCCC2)N(CCCO)C(=O)Cn2nnc(-c3ccc(C)o3)n2)cc1 (stereo not shown) | -10.8%
Cc1cccc(CSC2=NN3CCCC(=O)N=C3S2)c1 | -17.7%
COc1cc(CC(=O)OCC(=O)N2CC(C)CC(C)C2)cc(OC)c1OC (stereo not shown) | 30.9%
CCC(CC)C(=O)Nc1nnc(S(=O)(=O)N2CCc3ccccc32)s1 | 17.9%
Clc1cc(Br)ccc1OCCCNCc1ccccc1.O=C(O)C(=O)O | -30.1%
COc1cc(C)c(Cl)cc1S(=O)(=O)n1ccnc1 | 11.6%
CC(C)(C)OC(=O)N/N=C/c1cccc([N+](=O)[O-])c1 | 2.34%

SMILES | hERG current change (%, negative = inhibition) at 10uM
CCN(CC)c1nc(Nc2ccccc2)nc(Oc2ccc(=O)[nH]n2)n1 | -14.2%
Cc1ccc2c(c1)CC1(CN2C)C(=O)NC(=O)N(C(C)C)C1=O (stereo not shown) | 24.1%
CCOC(=O)C1C2C=CC3(CN(c4cccc(Cl)c4)C(=O)C13)O2 (stereo not shown) | 9.65%
O=C(CN1C(=O)NC2(CCCCC2)C1=O)N1CCN(S(=O)(=O)c2ccc(F)cc2)CC1 | 4.02%
O=C(NCCc1ccccc1)C1=CCN(S(=O)(=O)c2ccccc2)CC1 | 0.496%
Cc1ccc(NC(=O)CS(=O)c2ccccc2N)c(C)c1 (stereo not shown) | 24.9%
COc1ccccc1N1CCN(C(=O)c2ccc(-c3nc4ccccc4s3)o2)CC1 | -3.16%
COc1ccccc1C(=O)N/C(=C\c1ccc(Br)cc1)C(=O)NCCC(=O)O | 23.2%
CCCCC(c1nnnn1CC1CCCO1)N1CCN(Cc2ccccc2)CC1.Cl (stereo not shown) | -47.2%
O=C(N=C1SC2CS(=O)(=O)CC2N1c1ccccc1)c1cccc([N+](=O)[O-])c1 (stereo not shown) | 11.5%
O=C(N/N=C/c1ccc(O)cc1)c1cc[n+](Cc2ccccc2)cc1.[Cl-] | -5.97%
CCOc1ccc2c(c1)c(=O)c(S(=O)(=O)c1ccc(CC)cc1)cn2C | 13.9%
COc1ccc(CNC(=O)c2ccncc2)cc1 | 2.81%
COC(=O)c1ccccc1Sc1snnc1C | 10.1%
COc1ccc(OCc2cc(C(=O)NC3CCOC(C)(C)C3)no2)c2ccccc12 (stereo not shown) | 11.7%
O=C(COc1ccc(S(=O)(=O)N2CCOCC2)cc1)N1CCc2ccccc2C1 | -55.9%
CCOc1ccc(C(=O)N/N=C/c2ccc(-c3ccc(S(=O)(=O)Nc4ncccn4)cc3)o2)cc1 | 15.8%
Cc1ccc(NS(=O)(=O)c2ccc3c(c2)CCC(=O)N3)cc1C | 0.68%
COCCN(CCOC)S(=O)(=O)c1ccc(C(=O)NCCCN2CCOCC2)cc1 | 11.1%
CCOC(=O)c1c(C)oc2cc(Cl)c(O)c(CN(C)C)c12 | -6.79%
COc1nc(-c2ccc(C)cc2)ccc1-c1noc(-c2cccnc2)n1 | 13.5%
Cc1nn(C)c(C)c1S(=O)(=O)NCc1cccs1 | 2.54%

SMILES | hERG current change (%, negative = inhibition) at 10uM
c1ccc(-c2noc(CN3CCN(c4ccccc4)CC3)n2)cc1 | -13%
COc1ccc(C2/C=C\CN(C(=O)c3ccc(C)cc3)[C@H](Cc3ccccc3)C(=O)N2Cc2ccc(F)cc2)cc1 (stereo partly shown) | 14.6%
Cc1ncn(-c2ccc(C(=O)Oc3ccccc3)cn2)n1 | 32.4%
COCc1nnc(NC(=O)c2cccc(NC(=O)C(C)C)c2)s1 | 10.6%
COc1cc(/C=C/CO)ccc1O[C@@H]1O[C@H](CO)[C@@H](O)[C@H](O)[C@H]1O | 21.6%
O=c1[nH]cnc2[nH]ncc12 | 34%
O=S(=O)(NCC(c1ccc2c(c1)OCO2)N1CCOCC1)c1ccc(Cl)cc1 (stereo not shown) | -23.6%
CN(C)S(=O)(=O)N(CC(=O)N(Cc1ccccc1)Cc1ccccc1)c1ccccc1 | -1.97%
CCOc1ccc(-n2ccnc(SCC(=O)NCCc3ccccc3)c2=O)cc1 | -11.4%
COc1ccc(NC(=S)Nc2cc(-c3ccccc3)[nH]n2)cc1Cl | 12%
COc1ccccc1C(C)NCC(=O)NCC(=O)Nc1ccc(F)c(F)c1F (stereo not shown) | -3.27%
CC1Cc2nc(SCC(=O)NCCc3ccccc3)n(C)c(=O)c2S1 (stereo not shown) | -19.2%
CCCOP(=O)(c1ccc(N(C)C)cc1)C(Nc1ccccc1)c1ccc(N(C)C)cc1 (stereo not shown) | 10.8%
NC(=O)NC(=O)COC(=O)c1ccc(Cl)c(S(=O)(=O)N(Cc2ccccc2)c2ccc(Cl)cc2)c1 | 2.52%
CCOc1ccc(-c2c(C#N)c(N)nc3c2c(=O)n(C)c(=O)n3C)cc1OC | 16%
C#CCOCCOCCOCCNc1nc(N2CCOCC2)nc(N2CCN(C(=O)CCCCCCCCCCNC(=O)[C@H]([C@@H](C)CC)n3cc(CCCCN=C(N)N)nn3)CC2)n1 | 1.76%
CCOC(=O)c1c(-c2cccs2)csc1NC(=O)COC(=O)c1c(C)noc1C | 2.09%
COC(=O)c1cn(CCOc2ccc(C)cc2)c2ccccc12 | 0.253%
O=C(CSc1nnc(CNC(=O)c2ccccc2F)o1)NCC1CCCO1 (stereo not shown) | 5.43%
